Measurements: the supplement of paper PMC4967469

How the values were obtained:
Test in all cases: Viability of human cancer cell lines after 72 h of drug (GDSC screen)
[1] = compound: CNCc1ccc(-c2[nH]c3cc(F)cc4c3c2CCNC4=O)cc1 [AG-014699]; conditions: top dose 5 µM; top dose inferred
Experimental: (§1)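 Human cancer cell lines in 384-well plates, medium with 10% serum, drug for 72 h over a 256-fold dose range (nine 2-fold or five 4-fold steps up to the top dose). Adherent lines were fixed and stained with the nucleic acid dye Syto60, suspension lines read with resazurin; signal relative to control wells, capped at 0 and 100%. One two-parameter sigmoid per drug and line, fitted in a mixed model over all curves with the slope shared within a line.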

[2] = compound: N=C(N)NC(=N)NCCc1ccccc1 [Phenformin]; conditions: top dose 4000 µM; top dose inferred
Experimental: as §1

[3] = compound: COc1cc2ncnc(Nc3cc(Br)c(O)c(Br)c3)c2cc1OC [WHI-P97]; conditions: top dose 10.24 µM; top dose inferred
Experimental: as §1

[4] = compound: COc1cc2nccc(Oc3ccc(NC(=O)C4(C(=O)Nc5ccc(F)cc5)CC4)cc3)c2cc1OC [XL-184]; conditions: top dose 5.12 µM; top dose inferred
Experimental: as §1

[5] = compound: CCC1=C[C@@H]2CN(C1)Cc1c([nH]c3ccccc13)[C@@](C(=O)OC)(c1cc3c(cc1OC)N(C)[C@H]1[C@@](O)(C(=O)OC)[C@H](OC(C)=O)[C@]4(CC)C=CCN5CC[C@]31[C@@H]54)C2 [Vinorelbine]; conditions: top dose 0.064 µM; top dose inferred
Experimental: as §1

[6] = compound: O=c1cc(CN2CCOCC2)occ1OCCCCCSc1ccnc2cc(C(F)(F)F)ccc12 [EHT 1864]; conditions: top dose 10 µM; top dose inferred
Experimental: as §1

[7] = compound: C=CC(=O)Nc1cc(NC(=O)c2ccc(C)c(NC(=O)c3ccno3)c2)cc(C(F)(F)F)c1 [QL-XI-92]; conditions: top dose 10.24 µM; top dose inferred
Experimental: as §1

[8] = compound: O=c1cc(N2CCOCC2)oc2c(-c3cccc4c3sc3ccccc34)cccc12 [NU-7441]; conditions: top dose 2 µM; top dose inferred
Experimental: as §1

[9] = compound: COc1cc2ncnc(Nc3ccc(F)c(Cl)c3)c2cc1OCCCN1CCOCC1 [Gefitinib]; conditions: top dose 0.5 µM
Experimental: as §1

HCC38 (breast, adherent)
AUC [1]: 0.978 | IC50 [1]: > 5 µM | AUC [2]: 0.72 | IC50 [2]: 1110 µM | AUC [3]: 0.913 | IC50 [3]: > 10.2 µM | AUC [4]: 0.941 | IC50 [4]: > 5.12 µM | AUC [5]: 0.542 | IC50 [5]: 0.00525 µM | AUC [6]: 0.972 | IC50 [6]: > 10 µM | AUC [7]: 0.98 | IC50 [7]: > 10.2 µM | AUC [8]: 0.978 | IC50 [8]: > 2 µM | AUC [9]: 0.976 | IC50 [9]: > 0.5 µM

HCC1143 (breast, adherent)
AUC [1]: 0.971 | IC50 [1]: > 5 µM | AUC [2]: 0.65 | IC50 [2]: 772 µM | AUC [3]: 0.879 | IC50 [3]: > 10.2 µM | AUC [4]: 0.807 | IC50 [4]: 4.03 µM | AUC [5]: 0.888 | IC50 [5]: > 0.064 µM | AUC [6]: 0.969 | IC50 [6]: > 10 µM | AUC [7]: 0.958 | IC50 [7]: > 10.2 µM | AUC [8]: 0.955 | IC50 [8]: > 2 µM | AUC [9]: 0.932 | IC50 [9]: > 0.5 µM

HCC1395 (breast, adherent)
AUC [1]: 0.98 | IC50 [1]: > 5 µM | AUC [2]: 0.83 | IC50 [2]: 3250 µM | AUC [3]: 0.978 | IC50 [3]: > 10.2 µM | AUC [4]: 0.958 | IC50 [4]: > 5.12 µM | AUC [5]: 0.579 | IC50 [5]: 0.00687 µM | AUC [6]: 0.964 | IC50 [6]: > 10 µM | AUC [7]: 0.967 | IC50 [7]: > 10.2 µM | AUC [8]: 0.956 | IC50 [8]: > 2 µM | AUC [9]: 0.985 | IC50 [9]: > 0.5 µM

HCC1419 (breast, adherent)
AUC [1]: 0.982 | IC50 [1]: > 5 µM | AUC [2]: 0.763 | IC50 [2]: 2050 µM | AUC [3]: 0.958 | IC50 [3]: > 10.2 µM | AUC [4]: 0.982 | IC50 [4]: > 5.12 µM | AUC [5]: 0.848 | IC50 [5]: > 0.064 µM | AUC [6]: 0.862 | IC50 [6]: > 10 µM | AUC [7]: 0.964 | IC50 [7]: > 10.2 µM | AUC [8]: 0.981 | IC50 [8]: > 2 µM | AUC [9]: 0.96 | IC50 [9]: > 0.5 µM

HCC1428 (breast, adherent)
AUC [1]: 0.986 | IC50 [1]: > 5 µM | AUC [2]: 0.943 | IC50 [2]: > 4000 µM | AUC [3]: 0.981 | IC50 [3]: > 10.2 µM | AUC [4]: 0.987 | IC50 [4]: > 5.12 µM | AUC [5]: 0.933 | IC50 [5]: > 0.064 µM | AUC [6]: 0.981 | IC50 [6]: > 10 µM | AUC [7]: 0.974 | IC50 [7]: > 10.2 µM | AUC [8]: 0.967 | IC50 [8]: > 2 µM | AUC [9]: 0.98 | IC50 [9]: > 0.5 µM

HCC1569 (breast, adherent)
AUC [1]: 0.916 | IC50 [1]: > 5 µM | AUC [2]: 0.943 | IC50 [2]: > 4000 µM | AUC [3]: 0.953 | IC50 [3]: > 10.2 µM | AUC [4]: 0.969 | IC50 [4]: > 5.12 µM | AUC [5]: 0.551 | IC50 [5]: 0.00579 µM | AUC [6]: 0.915 | IC50 [6]: > 10 µM | AUC [7]: 0.921 | IC50 [7]: > 10.2 µM | AUC [8]: 0.97 | IC50 [8]: > 2 µM | AUC [9]: 0.979 | IC50 [9]: > 0.5 µM

HCC1937 (breast, adherent)
AUC [1]: 0.96 | IC50 [1]: > 5 µM | AUC [2]: 0.856 | IC50 [2]: > 4000 µM | AUC [3]: 0.919 | IC50 [3]: > 10.2 µM | AUC [4]: 0.973 | IC50 [4]: > 5.12 µM | AUC [5]: 0.882 | IC50 [5]: > 0.064 µM | AUC [6]: 0.948 | IC50 [6]: > 10 µM | AUC [7]: 0.951 | IC50 [7]: > 10.2 µM | AUC [8]: 0.975 | IC50 [8]: > 2 µM | AUC [9]: 0.967 | IC50 [9]: > 0.5 µM

IC50 is the fitted dose that halves viability relative to control wells, and lower means more sensitive; where the fit passes the top or lowest dose, that dose stands as a limit. AUC, from the same fit, is the share of area under the viability curve across the 256-fold dose range; values near 1 show little effect. For part of these data: A top dose marked as inferred is not printed in the source and was worked back from the curve model.
